Read-outs that look alike come from different tables or passages of the source.
Experiments:
hFcRn = biological target: T1, hFcRn (Homo sapiens, UniProt P55899); assay: Biacore 3000 affinity, one site binding saturation model; conditions: His6-tagged, 25° C.
T1 construct: made in house; host or cells: human SKOV-3 cells, lentivirally transduced, secreted; purified on immobilized human IgG
Procedure: (§1) In a separate experiment, the affinity of the interactions of Z variants to hFcRn (SEQ ID NO:1065) and mFcRn (SEQ ID NO:1070), respectively, was measured at both pH 6.0 and pH 7.4 on a Biacore 3000 instrument (GE Healthcare). hFcRn and mFcRn were produced essentially as described in Example 1 but using mouse 3T3 cells instead of human SKOV-3 cells for production of mFcRn, and immobilized on separate flow cells on a CM5 chip in acetate buffer at pH 4.65. The immobilization level was approximately 1000 RU for both receptors. A reference flow cell was created by activation and deactivation. 0.005% PCT pH 6.0 or 7.4 was used as running buffer and for dilution of the analytes. All analyses were performed at 25° C. […] The affinities were derived using GraphPad Prism 5 software, using a one site binding saturation model.

mFcRn = biological target: T2, mFcRn (Mus musculus, UniProt Q61559, INS109QKRG); assay: as above; conditions: His6-tagged, 25° C.
T2 construct: made in house; host or cells: mouse 3T3 cells
T2 sequence (Q61559 with tags, fused parts or gaps INS109QKRG): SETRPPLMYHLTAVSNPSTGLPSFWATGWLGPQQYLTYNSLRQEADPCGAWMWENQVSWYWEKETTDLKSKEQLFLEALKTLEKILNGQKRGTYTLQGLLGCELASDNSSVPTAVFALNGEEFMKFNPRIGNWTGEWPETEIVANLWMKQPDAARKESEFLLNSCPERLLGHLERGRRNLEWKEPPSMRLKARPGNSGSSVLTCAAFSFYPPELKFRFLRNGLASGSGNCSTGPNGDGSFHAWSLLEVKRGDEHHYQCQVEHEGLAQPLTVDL
T2 sequence (P01887 21-119 partner): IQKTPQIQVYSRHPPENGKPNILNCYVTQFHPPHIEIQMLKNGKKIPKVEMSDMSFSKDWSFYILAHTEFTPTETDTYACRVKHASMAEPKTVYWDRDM
Procedure: as §1

[1] = biological target: T3, human FcRn-eGFP transduced HeLa cells (Homo sapiens, UniProt P55899); assay: Blocking of IgG-FcRn immunofluorescence staining, comparison with IVIg and SCIg (Example 10); assay type: cell-based; conditions: 50 nM Alexa647 human IgG; 0.1-1000 nM blocker; pH 6.0
T3 construct: expressed in transfected cells; host or cells: HeLa cervix adenocarcinoma cells (lentiviral transduction), formaldehyde-fixed and saponin-permeabilised
T3 sequence (P55899 24-365): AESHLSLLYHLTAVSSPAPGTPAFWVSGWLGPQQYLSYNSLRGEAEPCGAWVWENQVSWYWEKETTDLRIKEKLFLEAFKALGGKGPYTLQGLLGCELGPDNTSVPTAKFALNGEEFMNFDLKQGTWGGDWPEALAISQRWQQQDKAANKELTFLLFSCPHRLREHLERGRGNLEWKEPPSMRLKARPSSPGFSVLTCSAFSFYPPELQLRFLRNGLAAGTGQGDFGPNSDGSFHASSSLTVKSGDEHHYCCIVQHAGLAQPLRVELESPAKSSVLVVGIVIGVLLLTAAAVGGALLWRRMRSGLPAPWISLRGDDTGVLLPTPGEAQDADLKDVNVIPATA
T3 sequence (P61769 21-119 partner): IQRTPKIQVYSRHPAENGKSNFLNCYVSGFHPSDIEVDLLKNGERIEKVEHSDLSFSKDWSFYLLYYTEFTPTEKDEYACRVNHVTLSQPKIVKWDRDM
Procedure: Human or murine FcRn-eGFP transduced HeLa cells were prepared as described in Example 4. […] The cells were incubated for 1 h at 37° C. in the dark, washed with 2×100 μl McIlvanes, pH 6.0, plus 2.5% FCS (Ultra low IgG) pH 6.0 and re-suspended in 180 μl of McIlvanes, pH 6.0, plus 1% BSA. Data from 10,000 GFP/FcRn positive cells were obtained using a FACS Calibur (Beckman Coulter) and the data was analyzed using Flowing software 2.5.0 (Turku University).

human FcRn = human FcRn (Homo sapiens, UniProt P55899); assay: Biacore binding at pH 6.0 and dissociation at pH 6.0 vs pH 7.4; set-up: made in house; host or cells: human SKOV-3 cells, lentivirally transduced, secreted; purified on immobilized human IgG; conditions: comparison among the seventeen Z variants
Sequence of human FcRn (P55899 24-290): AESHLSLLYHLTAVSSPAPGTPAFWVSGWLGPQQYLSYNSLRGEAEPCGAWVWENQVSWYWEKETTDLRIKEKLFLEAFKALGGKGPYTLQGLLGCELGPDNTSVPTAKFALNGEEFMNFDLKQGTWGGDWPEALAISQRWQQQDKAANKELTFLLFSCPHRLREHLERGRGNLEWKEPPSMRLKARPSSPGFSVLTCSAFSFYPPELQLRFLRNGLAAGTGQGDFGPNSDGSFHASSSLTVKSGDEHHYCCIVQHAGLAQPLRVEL
Sequence of human FcRn (P61769 21-119 partner): as the sequence (P61769 21-119 partner) above
Procedure: The interaction of FcRn binding His6-tagged Z variants with human FcRn was analyzed in a Biacore 2000 instrument (GE Healthcare). Human FcRn was immobilized in a flow cell on the carboxylated dextran layer of a CM5 chip surface (GE Healthcare). The immobilization was performed using amine coupling chemistry according to the manufacturer's protocol and using HBS-EP (GE Healthcare) as running buffer. One flow cell surface on the chip was activated and deactivated for use as blank during analyte injections. In the two binding experiments presented below, McIlvaines phosphate-citrate buffer pH 6.0 supplemented with 0.005% Tween-20 (0.005% PCT) was used as running buffer. In all experiments, a flow rate of 50 μl/min was used.
In one experiment, the dissociation at pH 6.0 was compared to the dissociation at pH 7.4. His6-tagged Z variants and a human monoclonal IgG1 were diluted in running buffer to a final concentration of 250 nM or 2.5 nM, respectively, and injected over the FcRn chip for 1 minute using the co-inject procedure. The second injection of the co-inject procedure, representing the dissociation phase of the interactions, contained either running buffer (pH 6.0) or 0.005% PCT pH 7.4. […] IgG was allowed to dissociate for 4 minutes before equilibration. […] The results were analyzed in BiaEvaluation software 4.1 (GE Healthcare). […]

T1 sequence (P55899 24-290): as the sequence (P55899 24-290) above
T1 sequence (P61769 21-119 partner): as the sequence (P61769 21-119 partner) above

Z07918: FcRn binding Z variant, 58 amino acid residues, from phage display selection (VDAKYAKEQDAAAHEIRWLPNLTFDQRVAFIHKLADDPSQSSELLSEAKKLNDSQAPK; Engineered FcRn binding polypeptide)
Kd (hFcRn; pH 6.0, read-out: KD (M) hFcRn pH 6.0): 1.2e-08 M | Kd (hFcRn; pH 7.4, read-out: KD (M) hFcRn pH 7.4): > 5e-07 M | Kd (mFcRn; pH 6.0, read-out: KD (M) mFcRn pH 6.0): 9e-08 M | Kd (mFcRn; pH 7.4, read-out: KD (M) mFcRn pH 7.4): > 5e-07 M | blocking of hIgG binding to hFcRn [1]: effectively blocked hIgG binding to hFcRn to a similar extent as IVIg or SCIg | dissociation curves (human FcRn): slowest dissociation curves
